Data published in paper PMC3349548.
Positions count from the first letter of the chain named. No constants are given. Whether binding was seen depends on the method and setting. In cells and extracts the contact can be indirect. Some entries that bind do so weakly or less than the wild type. For some assays here: Tags and fused reporters may be left off the sequences shown.

Protein sequences, listed by entry. Tags and fused reporters are not part of them. Lines headed by an entry give the natural chain unless they say otherwise; changes in a name come on top.
UniProt Q9D4H8: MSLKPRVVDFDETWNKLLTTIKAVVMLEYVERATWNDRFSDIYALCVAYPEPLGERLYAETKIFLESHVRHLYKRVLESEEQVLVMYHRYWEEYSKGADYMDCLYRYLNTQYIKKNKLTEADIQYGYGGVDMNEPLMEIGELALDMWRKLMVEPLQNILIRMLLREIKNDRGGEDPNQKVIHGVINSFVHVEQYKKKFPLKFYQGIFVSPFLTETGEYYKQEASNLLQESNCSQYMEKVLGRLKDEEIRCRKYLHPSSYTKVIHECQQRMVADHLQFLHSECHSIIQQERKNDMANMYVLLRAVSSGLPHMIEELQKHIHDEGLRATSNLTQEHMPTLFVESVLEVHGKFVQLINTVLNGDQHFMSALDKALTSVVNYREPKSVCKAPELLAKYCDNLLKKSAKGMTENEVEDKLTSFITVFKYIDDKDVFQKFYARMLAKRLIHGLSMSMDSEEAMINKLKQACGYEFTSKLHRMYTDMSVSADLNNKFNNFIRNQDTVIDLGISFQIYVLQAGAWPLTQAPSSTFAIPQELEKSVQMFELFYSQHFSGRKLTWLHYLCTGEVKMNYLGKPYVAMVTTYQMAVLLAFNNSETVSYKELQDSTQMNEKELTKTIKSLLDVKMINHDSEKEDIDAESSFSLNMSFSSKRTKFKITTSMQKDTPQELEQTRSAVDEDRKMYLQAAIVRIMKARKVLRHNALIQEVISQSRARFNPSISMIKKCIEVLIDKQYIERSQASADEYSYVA
UniProt Q13619: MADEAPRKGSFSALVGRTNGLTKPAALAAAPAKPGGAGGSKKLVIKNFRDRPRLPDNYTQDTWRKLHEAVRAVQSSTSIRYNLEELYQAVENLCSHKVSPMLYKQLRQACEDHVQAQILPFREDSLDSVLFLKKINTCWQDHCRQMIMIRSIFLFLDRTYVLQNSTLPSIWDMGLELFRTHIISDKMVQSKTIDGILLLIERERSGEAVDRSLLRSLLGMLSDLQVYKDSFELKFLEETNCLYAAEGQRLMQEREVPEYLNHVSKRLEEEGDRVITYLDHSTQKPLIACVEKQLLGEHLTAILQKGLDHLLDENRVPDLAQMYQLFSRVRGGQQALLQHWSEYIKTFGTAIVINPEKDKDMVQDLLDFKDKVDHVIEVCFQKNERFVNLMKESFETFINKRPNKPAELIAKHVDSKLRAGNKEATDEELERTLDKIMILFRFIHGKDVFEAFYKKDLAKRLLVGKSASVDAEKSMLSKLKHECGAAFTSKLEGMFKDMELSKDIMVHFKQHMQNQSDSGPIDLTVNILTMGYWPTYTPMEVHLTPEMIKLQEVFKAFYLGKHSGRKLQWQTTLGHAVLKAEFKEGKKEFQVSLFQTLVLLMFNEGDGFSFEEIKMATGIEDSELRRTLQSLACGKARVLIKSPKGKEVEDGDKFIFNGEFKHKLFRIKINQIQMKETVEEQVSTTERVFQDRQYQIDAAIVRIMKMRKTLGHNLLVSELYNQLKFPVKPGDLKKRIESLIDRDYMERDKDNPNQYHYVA
UniProt P40337: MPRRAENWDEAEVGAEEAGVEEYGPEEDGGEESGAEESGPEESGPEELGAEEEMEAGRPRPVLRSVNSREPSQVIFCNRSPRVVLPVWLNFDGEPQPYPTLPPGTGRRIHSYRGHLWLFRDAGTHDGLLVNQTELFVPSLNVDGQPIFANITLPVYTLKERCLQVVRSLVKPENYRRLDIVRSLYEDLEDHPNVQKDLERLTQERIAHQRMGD

How the values were obtained:
[1] = biological target: T1, Flag-UBXN7 (wild-type), expressed in A31N-ts20 mouse embryo fibroblasts (human) (UniProt O94888); assay: co-IP; Flag-UBXN7 immunoprecipitated from A31N-ts20 cells (thermo-sensitive for the ubiquitin-E1) grown at 35°C or at the restrictive temperature (39°C) for 20 hours
T1 sequence: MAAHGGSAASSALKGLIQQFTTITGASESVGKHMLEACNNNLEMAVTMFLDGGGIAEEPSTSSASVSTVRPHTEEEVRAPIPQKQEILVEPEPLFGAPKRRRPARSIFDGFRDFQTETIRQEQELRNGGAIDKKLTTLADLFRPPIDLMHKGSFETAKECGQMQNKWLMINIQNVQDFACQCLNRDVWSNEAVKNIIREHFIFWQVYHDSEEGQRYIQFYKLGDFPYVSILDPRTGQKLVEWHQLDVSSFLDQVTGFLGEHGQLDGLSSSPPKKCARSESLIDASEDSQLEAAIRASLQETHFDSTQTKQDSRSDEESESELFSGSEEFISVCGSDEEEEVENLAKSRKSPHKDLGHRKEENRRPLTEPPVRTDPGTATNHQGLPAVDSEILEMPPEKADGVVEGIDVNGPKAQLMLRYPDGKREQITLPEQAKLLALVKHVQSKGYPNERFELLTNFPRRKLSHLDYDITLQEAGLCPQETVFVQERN

[2] = biological target: T2, Flag-UBXN7 (wild-type), expressed in HeLa cells (human) (UniProt O94888); assay: condition: only cells treated with 1 μM MLN4924 for two hours; co-IP; as a1, Flag-UBXN7 immunoprecipitated from HeLa cells treated with 1 μM MLN4924 for two hours (alone or together with 10 μM MG132)
T2 sequence: T1 sequence

[3] = biological target: T2, Flag-UBXN7 (wild-type), expressed in HeLa cells (human); assay: co-IP; Flag-tagged bait immunoprecipitated with anti-Flag beads from transfected HeLa cell extracts (buffer A: 50 mM HEPES/KOH pH 7.2, 5 mM Mg(OAc)2, 70 mM KOAc, 0.2% Triton X-100, 10% glycerol, 0.2 mM EDTA); endogenous partners detected by western blot; cells treated or not with 10 μM MG132 and/or 1 μM MLN4924 for two hours
[4] = biological target: T3, endogenous UBXN7 (human (endogenous in HeLa)) (UniProt O94888); assay: co-IP; as a4, endogenous UBXN7 immunoprecipitated from HeLa cells not treated with MG132
T3 sequence: T1 sequence

[5] = biological target: T2, Flag-UBXN7 (wild-type), expressed in HeLa cells (human); assay: co-IP; as a1, Flag-UBXN7 immunoprecipitated from HeLa cells not treated with MG132
[6] = biological target: T3, endogenous UBXN7 (human (endogenous in HeLa)); assay: co-IP; endogenous UBXN7 immunoprecipitated from HeLa cell extracts (buffer A) with anti-UBXN7 antibodies crosslinked to Protein A-agarose; cells treated or not with 10 μM MG132 for two hours
[7] = biological target: T4, Flag-UBXN7 P459G, expressed in HeLa cells (human) (UniProt O94888); assay: co-IP; Flag-tagged bait immunoprecipitated with anti-Flag beads from transfected HeLa cell extracts (buffer A: 50 mM HEPES/KOH pH 7.2, 5 mM Mg(OAc)2, 70 mM KOAc, 0.2% Triton X-100, 10% glycerol, 0.2 mM EDTA); endogenous partners detected by western blot; cells treated or not with 10 μM MG132 and/or 1 μM MLN4924 for two hours
T4 sequence: T1 sequence with P459G

[8] = biological target: T5, Flag-UBXN7 S297H, expressed in HeLa cells (human) (UniProt O94888); assay: as above
T5 sequence: T1 sequence with S297H

[9] = biological target: T6, Flag-UBXN7 S297A, expressed in HeLa cells (human) (UniProt O94888); assay: as above
T6 sequence: T1 sequence with S297A

endogenous CUL2 (A31N-ts20 mouse embryo fibroblasts) (from UniProt Q9D4H8 1-745)
binding [1]: binds

endogenous CUL4A (HeLa) (from UniProt Q13619 1-759)
binding [2]: no binding | binding [3]: binds

endogenous VHL (HeLa) (from UniProt P40337 1-213)
binding [4]: no binding (condition: cells not treated with MG132) | binding [5]: no binding (condition: cells not treated with MG132) | binding [6]: binds | binding [3]: binds

endogenous p97 (HeLa) (from UniProt P55072 1-806)
binding [7]: no binding | binding [8]: binds | binding [9]: binds | binding [3]: binds
